According to the GPR68 mutational scans of Howard et al. (2025):
Scores whose standard error is large were omitted. The source holds two more conditions with little spread; they are left out. In variant names, del marks residues removed and ins residues inserted between the two positions. For part of these data: How much ogerin was present is not stated here.

B1: GPR68, Q15743 (parent)
chain: MGNITADNSSMSCTIDHTIHQTLAPVVYVTVLVVGFPANCLSLYFGYLQIKARNELGVYLCNLTVADLFYICSLPFWLQYVLQHDNWSHGDLSCQVCGILLYENIYISVGFLCCISVDRYLAVAHPFRFHQFRTLKAAVGVSVVIWAKELLTSIYFLMHEEVIEDENQHRVCFEHYPIQAWQRAINYYRFLVGFLFPICLLLASYQGILRAVRRSHGTQKSRKDQIQRLVLSTVVIFLACFLPYHVLLLVRSVWEASCDFAKGVFNAYHFSLLLTSFNCVADPVLYCFVSETTHRDLARLRGACLAFLTCSRTGRAREAYPLGAPEASGKSGAQGEEPELLTKLHPAFQTPNSPGSGGFPTGRLA

Columns and labels:
[1] = variants of: B1; assay: cAMP reporter score (Enrich2 score, wild type = 0); higher = more signal; HEK293T, FACS bins
[2] = variants of: B1; assay: surface expression score (Enrich2 score, wild type = 0); higher = more signal; HEK293T, FACS bins

Variant | cAMP reporter score ([1]; pH 5.5) | cAMP reporter score ([1]; pH 6) | cAMP reporter score ([1]; pH 6, modulator: ogerin) | cAMP reporter score ([1]; pH 6.5, modulator: ogerin) | surface expression score [2]
F129_H130del | -2.21 | -1.76 | -2.01 | -1.25 | -2.32
F129del | -0.854 | -1.39 | – | -0.753 | -0.618
H130_Q131del | -1.34 | -0.865 | -1.96 | -0.488 | -2.56
Q131_F132insGSG | -1.06 | – | – | – | -1.94
Q131del | -1.14 | -1.39 | -0.84 | -1.21 | -2.49
MGNITADNSSMSCTIDHTIHQTLAPVVYVTVLVVGFPANCLSLYFGYLQIKARNELGVYLCNLTVADLFYICSLPFWLQYVLQHDNWSHGDLSCQVCGILLYENIYISVGFLCCISVDRYLAVAHPFRFHQARTLKAAVGVSVVIWAKELLTSIYFLMHEEVIEDENQHRVCFEHYPIQAWQRAINYYRFLVGFLFPICLLLASYQGILRAVRRSHGTQKSRKDQIQRLVLSTVVIFLACFLPYHVLLLVRSVWEASCDFAKGVFNAYHFSLLLTSFNCVADPVLYCFVSETTHRDLARLRGACLAFLTCSRTGRAREAYPLGAPEASGKSGAQGEEPELLTKLHPAFQTPNSPGSGGFPTGRLA [F132A] | 0.541 | -1.67 | 0.103 | – | 0.706
MGNITADNSSMSCTIDHTIHQTLAPVVYVTVLVVGFPANCLSLYFGYLQIKARNELGVYLCNLTVADLFYICSLPFWLQYVLQHDNWSHGDLSCQVCGILLYENIYISVGFLCCISVDRYLAVAHPFRFHQCRTLKAAVGVSVVIWAKELLTSIYFLMHEEVIEDENQHRVCFEHYPIQAWQRAINYYRFLVGFLFPICLLLASYQGILRAVRRSHGTQKSRKDQIQRLVLSTVVIFLACFLPYHVLLLVRSVWEASCDFAKGVFNAYHFSLLLTSFNCVADPVLYCFVSETTHRDLARLRGACLAFLTCSRTGRAREAYPLGAPEASGKSGAQGEEPELLTKLHPAFQTPNSPGSGGFPTGRLA [F132C] | -0.855 | -0.28 | -0.564 | -0.624 | -0.921
